Data reported in PubChem BioAssay AID488969 (Vanderbilt High Throughput Screening Facility, 2010).
Over roughly 110,000 compounds, “z-score” has its median near -0.1; the highest 2% begin near 2. Some of the results follow. Calls of active or inactive are those of the source.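 How the source made its calls: active means z-score in the third read window above 3 or below -3; inactive means the rest.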

Molecular target: Metabotropic glutamate receptor 8 (Rattus norvegicus) (UniProt P70579)
Assay: rat mGluR8 modulators via GIRK flux, primary screen, cell-based, thallium flux, HTS (AID 488969)
Settings: HEK293 rat mGluR8, GIRK (G protein-gated inwardly rectifying potassium channel) thallium flux, FluoZin2; at 10 µM; stronger effect = higher value; submaximal glutamate (EC20) added with thallium

Sequence of UniProt P70579 (P70579 whole entry, looked up): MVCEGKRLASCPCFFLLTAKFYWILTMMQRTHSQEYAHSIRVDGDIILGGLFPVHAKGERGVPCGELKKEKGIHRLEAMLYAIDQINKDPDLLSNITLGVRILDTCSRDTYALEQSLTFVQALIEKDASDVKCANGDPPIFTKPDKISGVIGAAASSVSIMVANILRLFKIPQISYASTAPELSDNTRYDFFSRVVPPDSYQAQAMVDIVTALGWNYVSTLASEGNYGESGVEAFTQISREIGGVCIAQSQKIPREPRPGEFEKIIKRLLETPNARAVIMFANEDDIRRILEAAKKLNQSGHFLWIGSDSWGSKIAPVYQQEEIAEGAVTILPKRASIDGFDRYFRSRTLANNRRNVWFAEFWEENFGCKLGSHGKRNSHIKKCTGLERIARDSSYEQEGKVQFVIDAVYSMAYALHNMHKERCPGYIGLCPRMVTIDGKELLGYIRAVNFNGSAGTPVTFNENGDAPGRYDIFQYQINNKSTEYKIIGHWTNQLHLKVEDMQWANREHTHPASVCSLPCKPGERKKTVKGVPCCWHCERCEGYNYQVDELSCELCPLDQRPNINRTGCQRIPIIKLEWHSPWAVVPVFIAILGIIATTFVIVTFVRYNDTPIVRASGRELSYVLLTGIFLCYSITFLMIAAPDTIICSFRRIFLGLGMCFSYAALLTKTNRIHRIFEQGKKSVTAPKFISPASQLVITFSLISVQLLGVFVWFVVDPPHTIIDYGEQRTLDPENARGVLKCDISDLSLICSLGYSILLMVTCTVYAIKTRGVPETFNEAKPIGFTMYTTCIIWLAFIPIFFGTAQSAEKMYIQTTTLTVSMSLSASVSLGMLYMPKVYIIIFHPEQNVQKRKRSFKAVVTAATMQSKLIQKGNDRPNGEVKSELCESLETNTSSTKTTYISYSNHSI

First: Cc1ccc(S(=O)(=O)N2CN(Cc3ccco3)c3nc4ccccc4nc32)cc1C
Second: COc1ccc(-c2cnn3c(N)c(S(=O)(=O)c4ccccc4)cnc23)cc1
The z-score of the first is lower: -0.26 for the first, -0.0142 for the second.

Going from `COc1cc(C2C(C#N)=C(N)OC3=C2C(=O)CCC3)c([N+](=O)[O-])cc1OC` (stereo unspecified) to `CC(=O)N1CCC2(CC1)C(C#N)=C(N)OC1=C2C(=O)CC(C)(C)C1`, the z-score rises from -0.496 to 0.05.

First: C=CCOc1ccc(NC(=O)C(=O)NCCCn2ccnc2)cc1
Second: COc1ccc(OC)c(NC(=O)CSc2nnc(CNC(=O)COc3ccc(Cl)cc3)o2)c1
The z-score of the first is higher: -0.0948 for the first, -0.149 for the second.

Compared with `COC(=O)c1sccc1NC(=O)C1C2C=CC(O2)C1C(=O)O` (stereo unspecified), `COC(=O)c1cc(Cl)c(NC(=O)c2cc3ccccc3o2)cc1OC` is lower in z-score: -0.0649 for the first, -0.151 for the second.

Compared with `COC(=O)c1c(NC(=O)c2ccccc2N(C)S(=O)(=O)c2ccccc2)sc2c1CCCC2`, `CC(=O)Nc1sc2c(c1C(c1ccccc1)N1CCOCC1)CCCC2` (stereo unspecified) is higher in z-score: -0.215 for the first, -0.174 for the second.

First: CCC(=O)NC(=S)N1CCN(c2ccc([N+](=O)[O-])cc2Cl)CC1
Second: O=C(c1ccc([N+](=O)[O-])s1)N1CCN(c2cccc(Cl)c2)CC1
The z-score of the first is higher: 0.187 for the first, -0.197 for the second.

Going from `O=C(Nc1ccc(S(=O)(=O)N2CCCCC2)cc1)C1CCCN(C(=O)c2ccc(Cl)cc2)C1` (stereo unspecified) to `O=C(Nc1cccc(C(F)(F)F)c1)NC1CCN(S(=O)(=O)c2ccc(F)cc2)CC1`, the z-score falls from -0.106 to -0.153.

First: O=C(CN(Cc1ccccc1)C(=O)CSc1nnc(COc2ccccc2)o1)NC1CCCC1
Second: CCOC(=O)C1CCCN(C(=O)c2ccccc2Oc2ccccc2)C1 (stereo unspecified)
The z-score of the first is higher: 0.0593 for the first, -1.27 for the second.

Compared with `Cc1ccc2nc(-c3cccc(NC(=O)c4ccco4)c3)[nH]c2c1`, `O=C(Nc1ccon1)c1cc2ccccc2oc1=O` is higher in z-score: -0.409 for the first, -0.329 for the second.

Going from `O=C(OCc1nc2ccccc2[nH]1)C12CC3CC(CC(C3)C1)C2` to `Cc1ccccc1-c1noc(CCC(=O)NCC2CCCO2)n1` (stereo unspecified), the z-score falls from 0.101 to -0.035.

First: Clc1ccc(CSc2nnc(-c3cccnc3)n2Cc2ccco2)c(Cl)c1
Second: Clc1ccc2nc3ccccn3c2c1
The z-score of the first is lower: -0.912 for the first, 0.482 for the second.

Going from `CC(NC(=O)Nc1ccc(F)cc1F)c1ccncc1` (stereo unspecified) to `O=[N+]([O-])c1ccc(NNC(=S)Nc2ccc(F)cc2)cc1`, the z-score rises from 0.0735 to 0.253.

Compared with `CCCCN(CC)C(=O)C1CCC(=O)N(c2ccc(OC)cc2)C1c1ccc(OC)c(OC)c1` (stereo unspecified), `COc1ccc(OCCOC(=O)c2ccc(-n3cnnn3)cc2)cc1` is lower in z-score: 0.0756 for the first, -0.298 for the second.

First: CCOc1ncccc1C(=O)NCc1ccccc1
Second: CCOc1ccccc1NS(=O)(=O)c1cccc2nsnc12
The z-score of the first is lower: -0.616 for the first, 0.831 for the second.

First: C=CCOc1ccccc1CNCCCN1CCOCC1
Second: O=S(=O)(Nc1ccc(N2CCOCC2)cc1)c1ccccc1
The z-score of the first is lower: -0.0337 for the first, 0.324 for the second.

Going from `N#Cc1ccc(Oc2nc(Nc3ccc(F)cc3)nc(N3CCCC3)n2)cc1` to `CN(C(=O)c1ccc(C#N)cc1)c1nnc(-c2ccccn2)s1`, the z-score falls from 0.106 to -0.0482.

Compared with `O=C(CCC(=O)N1CCCC1)Nc1nnc(C2CCCCC2)s1`, `CC(=O)N1CCC(N(CCCOC(C)C)C(=O)Nc2ccc(C)c(C)c2)CC1` is lower in z-score: 0.682 for the first, -0.0612 for the second.

Compared with `CCn1c(O)c(N=NC2=NC(=O)CS2)c2cc(C)ccc21`, `COc1ccc2sc3ccccc3c(=O)c2c1` is lower in z-score: 2.24 for the first, -0.213 for the second.

Going from `COC(=O)c1cc2nc(-c3ccccc3)cc(C(F)(F)F)n2n1` to `O=C1CC(Sc2ncccn2)C(=O)N1c1ccccc1C(F)(F)F` (stereo unspecified), the z-score rises from -0.895 to 0.784.

Compared with `COCCCNC(=O)c1ccc2c(c1)OCO2`, `CCCCC(=O)Nc1ccc(Br)cc1C(=O)O` is lower in z-score: -0.233 for the first, -0.24 for the second.

Going from `CCOC(=O)C1=C(C)n2c(s/c(=C3\C(=O)Nc4ccccc43)c2=O)=NC1c1ccc(OC)cc1` (stereo unspecified) to `COc1ccc(C2C(=O)N(C3CCCCC3)CC(=O)N2CC2COc3ccccc3O2)cc1` (stereo unspecified), the z-score rises from -0.234 to -0.174.

Going from `Cc1cccc(NC(=S)N2CCOCC2)c1C` to `CC(C)(O)C#Cc1ccc(C(=O)N2CCN(C(=O)c3ccco3)CC2)cc1`, the z-score rises from -0.324 to 0.294.

Going from `COc1cc(OC)cc(C(=O)N/N=C/c2ccc(OC)c(COc3ccc(F)cc3)c2)c1` to `CCOc1cc(-c2nc(-c3ccccc3OC)no2)cc(OCC)c1OCC`, the z-score rises from 0.0589 to 0.118.

Compared with `NC(=O)C(c1ncc(C(F)(F)F)cc1Cl)c1c(Cl)cccc1Cl` (stereo unspecified), `Cc1cc(C)c(S(C)(=O)=O)c(S(=O)c2ccc(Cl)cc2)n1` (stereo unspecified) is lower in z-score: -0.197 for the first, -0.807 for the second.

First: CC1CCCN(CCOCCSc2ccccc2)C1 (stereo unspecified)
Second: O=C1C(C=NCCCN2CCCC2=O)=C(O)c2ccccc21
The z-score of the first is higher: 0.303 for the first, 0.249 for the second.

First: Cc1ccccc1C1NC(=O)Cc2ccccc21 (stereo unspecified)
Second: Cc1ccc(Nc2nc3nonc3[nH]c2=O)cc1
The z-score of the first is higher: -0.099 for the first, -0.304 for the second.

Going from `CC(C)OCC(O)CS(=O)Cc1ccccc1` (stereo unspecified) to `CC(=O)c1ccc(OCC(O)CN2CCC(C)CC2)cc1` (stereo unspecified), the z-score falls from 0.168 to -0.444.

`CCS(=O)(=O)N1CCC(C(=O)c2ccc(Cl)cc2)CC1` showed a z-score of 0.431.

In the case of `COc1ccccc1NC(=O)c1cc(C(=O)Nc2ccccc2OC)cc(N2C(=O)CCC2=O)c1`, the z-score is reported as active: 4.66.
